Measurements from patent US5968751A, “Method for detecting the presence of protein C antibody in a fluid sample” (The Scripps Research Institute, priority 1997, dated 1999).
pIC50: −log10 of the molar value. Like-named read-outs stand apart in the source and are kept apart here. For some assays here: Not every detail of the peptide structures is certain; ends, links or a residue may be inferred. For some assays here: At least one compound was matched to its structure with a doubt left. No end group written: not given here.

Key:
Type in all cases: biochemical
APC = APC (Homo sapiens, UniProt P04070); test: Xa-1-stage coagulation assay, inhibition of APC anticoagulant activity; design: Protein C consists of a 155 amino acid residue light chain and a 262 amino acid residue heavy chain; from tissue; host or cells: human plasma factor IX concentrate; details: Xa-1-stage assay in NHP; read-out: 50% inhibition of APC anticoagulant activity
APC, sequence (P04070 43-197 limits assumed): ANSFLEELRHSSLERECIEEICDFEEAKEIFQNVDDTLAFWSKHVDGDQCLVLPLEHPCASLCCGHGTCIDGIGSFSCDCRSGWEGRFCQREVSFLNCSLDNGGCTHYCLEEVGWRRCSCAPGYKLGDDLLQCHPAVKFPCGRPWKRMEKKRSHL
APC, sequence (P04070 212-450 limits assumed): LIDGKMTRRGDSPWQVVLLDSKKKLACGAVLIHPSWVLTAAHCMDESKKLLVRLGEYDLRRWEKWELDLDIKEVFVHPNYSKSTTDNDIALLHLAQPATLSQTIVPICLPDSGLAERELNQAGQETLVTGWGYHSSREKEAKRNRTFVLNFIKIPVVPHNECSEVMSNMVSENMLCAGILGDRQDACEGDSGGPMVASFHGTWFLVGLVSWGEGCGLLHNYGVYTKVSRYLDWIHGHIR
Procedure: For testing the inhibition of the synthetic peptides on APC activity described above, Xa-1-stage coagulation assays were also performed as described. See Seegers et al., Thrombosis Res., 13:233-243 (1978); Marlar et al., supra; and Walker et al., J. Biol. Chem., 265:1484-1489 (1990). PC heavy chain-derived peptides listed below in Table 6 and PC light chain-derived peptides listed below in Table 7 were prepared as described above and separately admixed for a final concentration of 2 mM with 120 nM APC in 100 μl of TBS-BSA at pH 7.4 to form separate peptide-APC admixtures. The resulting admixtures were maintained for ten minutes at 37° C. Separate aliquots of peptides maintained under the same conditions in the absence of APC served as controls for the inhibitory effect of synthetic peptides on APC anticoagulant activity. […]
The time for clot formation was measured by an Electra 700 Automatic Coagulation Timer (Medical Laboratory Automation, Inc., Mount Vernon, N.Y.). Each peptide's effect was determined in duplicate. The results of the inhibition of APC anticoagulant activity by synthetic peptides as measured in Xa-1-stage coagulation assays are presented in Tables 6 and 7 below with the APTT assay results and are presented as the mean values obtained with APTT assays. […]

prothrombinase = prothrombinase assay with purified proteins; details: for pIC50: 1.2 uM prothrombin, read-out: IC50 prothrombinase activity; for inhibition of prothrombinase activity in the absence of Factor Va: up to 200 μM PC311-325, up to 250 μM PC142-155
Procedure: FIG. 3 illustrates prothrombinase activity in the presence of PC311-325. The assay was performed using 1 nM factor Xa, 0.4 nM factor Va, 1.2 μM prothrombin and […] factor Xa in the absence of factor Va in TBS-BSA, 2.5 mM CaCl2, pH 7.4. Unless otherwise specified all prothrombinase assays were carried out in the presence of 50 μM phospholipid vesicles. In all cases solid symbols indicate prothrombinase activity in the presence of factor Va whereas open symbols indicate prothrombinase activity in the […] of factor Va. Solid circles with solid lines indicate prothrombinase activity (with factor Va) in the presence of PC311-325, solid squares with solid lines indicate prothrombinase activity (with factor Va) in the presence of PC311-325 but in the absence of phospholipid vesicles and solid triangles with dashed lines indicate prothrombinase activity (with factor Va) in the presence of the control peptide. Open circles with solid lines denote prothrombinase activity (without factor Va) in the presence of PC311-325 and open triangles with dashed lines denote prothrombinase activity (without factor Va) in the presence of the control peptide.
FIG. 4 illustrates prothrombinase activity in the presence of PC142-155. The assay was performed using 1 nM factor Xa, 0.4 nM factor Va, 1.2 μM prothrombin and 2.5 nM factor Xa in the absence of factor Va in TSB-BSA, 2.5 mM CaCl2, 50 μM phospholipid vesicles, pH 7.4. In all cases solid symbols indicate prothrombinase activity in the […] of factor Va. Solid circles with solid lines indicate prothrombinase activity (with factor Va) in the presence of PC142-155 and solid triangles with dashed lines indicate prothrombinase activity (with factor Va) in the presence of the scrambled peptide. Open circles with solid lines denote prothrombinase activity (without factor Va) in the presence of PC142-155 and open triangles with dashed lines denote prothrombinase activity (without factor Va) in the presence of the scrambled peptide.
Factor Va was determined via its cofactor activity in the activation of prothrombin by Factor Xa. Amounts of Factor Xa (Enzyme Research Lab.), phospholipid vesicles and prothrombin (purified as described by Stenflo, J. Biol. Chem., 25:355-363, (1976) from a barium citrate plasma precipitate purified by DEAE-sephadex chromatography) present in the assay were such that the rate of prothrombin activation was linearly dependent on factor Va and constant over the time course of the experiment. The molar concentration of Factor Xa was determined by active site titration as described by Chase et al., Biochem. Biophys. Res. Commun., 29:508-514 (1967). The molecular weights and extinction coefficients (E280 nm/mg/ml) used in the calculation of protein concentrations were as follows: prothrombin, 72,000 and 1.44; APC, 62,000 and 1.45; and Factor X, 65,300 and 1.16.
In a typical experiment, Factor Va was assayed as follows. An aliquot of the solution containing Va was admixed to a solution containing prothrombin, phospholipids and calcium in individual wells of a 96-well microtiter plate. Prothrombin activation was initiated with the mixture of Factor Xa to the Va-containing wells to form a reaction admixture. Final concentrations of reagents in the reaction mixture were the following: 1.2 μM prothrombin, 1 nM Xa, 0-0.4 nM Va, 50 μM phospholipid-vesicles (phosphatidylserine 20%/phosphatidylcholine 80%; M/M), in 0.05 M Tris-HCl at pH 7.4 containing 0.1 M NaCl, 0.5% BSA and 2.0 mM CaCl2. The reaction was maintained at 22° C. At one minute time intervals from initiation of the reaction, 20 μl aliquots of the reaction admixture were withdrawn and admixed to wells of an ELISA plate containing 80 μl TBS-BSA and 10 mM EDTA at pH 8.0 resulting in the quenching of the prothrombinase reaction. […]

tenase = molecular target: T1, tenase (Homo sapiens, UniProt P00740); test: tenase assay (Factor Xa generation); details: absence of VIIIa
T1 construct: 30 μl of 3.5 nM factor IXaβ (Enzyme Research Labs) in BBS+OV; purchased Enzyme Research Labs (factor IXaβ, factor X); Armour Pharmaceutical, Chicago (Monoclate P)
T1 sequence (P00740 47-191): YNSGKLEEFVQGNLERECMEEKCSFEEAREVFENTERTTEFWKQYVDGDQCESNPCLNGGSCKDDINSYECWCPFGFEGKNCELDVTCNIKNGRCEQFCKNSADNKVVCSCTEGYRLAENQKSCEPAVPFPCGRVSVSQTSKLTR
T1 sequence (P00740 227-461): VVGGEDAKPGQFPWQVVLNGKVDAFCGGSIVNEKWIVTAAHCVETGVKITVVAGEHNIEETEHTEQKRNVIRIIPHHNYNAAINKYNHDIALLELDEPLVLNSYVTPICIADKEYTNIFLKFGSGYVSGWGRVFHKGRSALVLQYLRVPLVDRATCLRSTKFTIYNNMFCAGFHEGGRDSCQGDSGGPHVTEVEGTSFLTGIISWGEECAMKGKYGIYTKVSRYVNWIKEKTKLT
Procedure: The tenase assay was conducted both in the presence and absence of Factor VIIIa. The procedure for the tenase assay varied depending on this variable and is described hereafter.
Peptides prepared in Example 1 were dissolved in water and then 1/2 into 50 mM Barbital, 200 mM NaCl, 0.2% NaN3, 2.5 mg/ml Ovalbumin (5 times recrystallized, salt free, from American Biorganics Inc., New York, pH=7.5). […]. Before using them, they were made 250 μM into BBs +1.25 mg/ml Ovalbumin (BBS+OV) containing CaCl2 for a final concentration of 25 mM and they were preincubated for 10 minutes at 37° C. These vesicles were allowed to cool to room temperature before being added to the reaction mixture. Monoclate P (Armour Pharmaceutical, Chicago) 114 U VIII:C/ml frozen in water was thawed at 37° C. and immediately diluted to 6 U/ml into BBS+OV (22° C.). […]
Aliquots of 20 μl were drawn at time 0, 1, 2, 3, 4 and 5 minutes of maintenance at 22° C. and diluted to 160 μl of 50 mM TrisHCl, 100 mM NaCl, 5 mM EDTA and 0.1 mg/ml Ovalbumin pH=8.0. Once all aliquots were drawn, 20 μl 2.0 mM S-2765 were added and the increase of A 405 at 22° C. was recorded in a model EL 312 Microplate Biokinetics Reader (BIO-TEK Instruments Inc., Vermont). […]

[1] = presence of Factor Va: 1 nM Xa, 0.4 nM Va
[2] = absence of Factor Va: 2.5 nM Xa

**Q.** How did the pIC50 (APC) turn out when “HPAVKFPSGRPWKRM-NH2 (C-terminus assumed) [PC134-148]” was run?
**A.** 3.60

**Q.** “GKGQPSVLQVVNLPI-NH2 [PT473-487, Gly-Lys-Gly-Gln-Pro-Ser-Val-Leu-Gln-Val-Val-Asn-Leu-Pro-Ile]” was tested. Which pIC50 (prothrombinase; [1]) did it give?
**A.** ~5.00

**Q.** And the “inhibition of prothrombinase activity in the absence of Factor Va” value (prothrombinase)?
**A.** no appreciable inhibition

**Q.** With “ARKGKYGIYTKVTAF-NH2 [X404-418, Ala-Arg-Lys-Gly-Lys-Tyr-Gly-Ile-Tyr-Thr-Lys-Val-Thr-Ala-Phe]” as the substance, how does the pIC50 (prothrombinase; [1]) read?
**A.** ~4.12

**Q.** And the “inhibition of prothrombinase activity in the absence of Factor Va” value (prothrombinase)?
**A.** no appreciable inhibition

**Q.** How did the pIC50 (prothrombinase; [2]) turn out when “YGFYTHVFRLKKWIQ-NH2 [PT557-571, Tyr-Gly-Phe-Tyr-Thr-His-Val-Phe-Arg-Leu-Lys-Lys-Trp-Ile-Gln]” was run?
**A.** ~4.10

**Q.** What about the pIC50 (prothrombinase; [1]) of the same substance?
**A.** ~4.40

**Q.** With “LVLQYLRVPLVDRAT-NH2 [IX321-335, Leu-Val-Leu-Gln-Tyr-Leu-Arg-Val-Pro-Leu-Val-Asp-Arg-Ala-Thr]” as the substance, how does the inhibition of tenase (tenase) read?
**A.** minimal inhibition

**Q.** With “VTAFLKWIDRSMKTR-NH2 [X415-429, Val-Thr-Ala-Phe-Leu-Lys-Trp-Ile-Asp-Arg-Ser-Met-Lys-Thr-Arg]” as the substance, how does the pIC50 (prothrombinase; [2]) read?
**A.** ~3.30

**Q.** What about the pIC50 (prothrombinase; [1]) of the same substance?
**A.** ~3.30

**Q.** With “KVSRYVNWIKEKTKL-NH2 [IX400-414, Lys-Val-Ser-Arg-Tyr-Val-Asn-Trp-Ile-Lys-Glu-Lys-Thr-Lys-Leu]” as the substance, how does the inhibition of tenase (tenase) read?
**A.** minimal inhibition
